Assay results as given in the supplement of paper PMC4604168 (melanoma cell lines).
The other results are listed elsewhere or left out. Single values are uncertain, as repeats are few or missing.

These compounds were tested on COLO800 (assay: cell count relative to DMSO control; melanoma cells; higher = more viable cells). Settings: library dose: standard library concentration; 72 h.
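Note: cells treated in 1,536-well plates, then fixed and DAPI-stained, with nuclei counted from automated high-throughput microscope images.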

Compound | cell count
N#CC[C@H](C1CCCC1)n1cc(-c2ncnc3[nH]ccc23)cn1 [ruxolitinib] + Oc1cc(-c2nc(-c3ccccc3)[nH]c2-c2ccncc2)ccc1Cl [L779450] (first compound 5 µM, partner dose 1 µM) | 208%
N#CC[C@H](C1CCCC1)n1cc(-c2ncnc3[nH]ccc23)cn1 [ruxolitinib] + CN(c1ncccc1CNc1nc(Nc2ccc3c(c2)CC(=O)N3)ncc1C(F)(F)F)S(C)(=O)=O [PF562271] (first compound 5 µM, partner dose 0.4 µM) | 79.9%
Cc1cc(Nc2cc(N3CCN(C)CC3)nc(Sc3ccc(NC(=O)C4CC4)cc3)n2)n[nH]1 [Tozasertib] + COc1ccc(C2=N[C@@H](c3ccc(Cl)cc3)[C@@H](c3ccc(Cl)cc3)N2C(=O)N2CCNC(=O)C2)c(OC(C)C)c1 [Nutlin-3] (first compound 0.03 µM, partner dose 0.5 µM) | 50%
CC[C@]1(O)C[C@H]2CN(CCc3c([nH]c4ccccc34)[C@@](C(=O)OC)(c3cc4c(cc3OC)N(C=O)[C@H]3[C@@](O)(C(=O)OC)[C@H](OC(C)=O)[C@]5(CC)C=CCN6CC[C@]43[C@@H]65)C2)C1 [vincristine] + Cc1cc(Nc2cc(N3CCN(C)CC3)nc(/C=C/c3ccccc3)n2)n[nH]1 [ENMD2076] (first compound 0.0005 µM, partner dose 0.2 µM) | 42.6%
Cc1cc(Nc2cc(N3CCN(C)CC3)nc(Sc3ccc(NC(=O)C4CC4)cc3)n2)n[nH]1 [Tozasertib] + Cc1cc(N2CCOCC2)cc2[nH]c(-c3c(NC[C@@H](O)c4cccc(Cl)c4)cc[nH]c3=O)nc12 [BMS536924] (first compound 0.03 µM, partner dose 1 µM) | 39.6%
Cc1cc(Nc2cc(N3CCN(C)CC3)nc(Sc3ccc(NC(=O)C4CC4)cc3)n2)n[nH]1 [Tozasertib] + O=C(O)c1ccc(-c2c[nH]c3ncc(-c4ccccc4)cc23)cc1C1CCCC1 [GSK650394] (first compound 0.03 µM, partner dose 0.8 µM) | 34.1%
Cc1cc(Nc2cc(N3CCN(C)CC3)nc(Sc3ccc(NC(=O)C4CC4)cc3)n2)n[nH]1 [Tozasertib] + Nc1cccc2c1CN(C1CCC(=O)NC1=O)C2=O [lenalidomide] (first compound 0.03 µM, partner dose 5 µM) | 62%
N#CC[C@H](C1CCCC1)n1cc(-c2ncnc3[nH]ccc23)cn1 [ruxolitinib] + CCN(CC)CCCCNc1ncc2cc(-c3cc(OC)cc(OC)c3)c(NC(=O)NC(C)(C)C)nc2n1 [PD173074] (first compound 5 µM, partner dose 0.5 µM) | 77.6%
N#CC[C@H](C1CCCC1)n1cc(-c2ncnc3[nH]ccc23)cn1 [ruxolitinib] + O=C(CCCCCCC(=O)Nc1ccccc1)NO [vorinostat] (first compound 5 µM, partner dose 0.4 µM) | 73.6%
CC[C@]1(O)C[C@H]2CN(CCc3c([nH]c4ccccc34)[C@@](C(=O)OC)(c3cc4c(cc3OC)N(C=O)[C@H]3[C@@](O)(C(=O)OC)[C@H](OC(C)=O)[C@]5(CC)C=CCN6CC[C@]43[C@@H]65)C2)C1 [vincristine] + COC(=O)c1sccc1S(=O)(=O)Nc1ccc(Nc2ccccc2)cc1OC [GSK0660] (first compound 0.0005 µM, partner dose 5 µM) | 35.2%
CC[C@]1(O)C[C@H]2CN(CCc3c([nH]c4ccccc34)[C@@](C(=O)OC)(c3cc4c(cc3OC)N(C=O)[C@H]3[C@@](O)(C(=O)OC)[C@H](OC(C)=O)[C@]5(CC)C=CCN6CC[C@]43[C@@H]65)C2)C1 [vincristine] + O=C(/C=C/c1cccnc1)NCCCCC1CCN(C(=O)c2ccccc2)CC1 [FK866] (first compound 0.0005 µM, partner dose 0.05 µM) | 65.2%
Cc1cc(Nc2cc(N3CCN(C)CC3)nc(Sc3ccc(NC(=O)C4CC4)cc3)n2)n[nH]1 [Tozasertib] + CC(C)(C)c1cnc(CSc2cnc(NC(=O)C3CCNCC3)s2)o1 [SNS-032] (first compound 0.03 µM, partner dose 0.05 µM) | 39.9%
Cc1cc(Nc2cc(N3CCN(C)CC3)nc(Sc3ccc(NC(=O)C4CC4)cc3)n2)n[nH]1 [Tozasertib] + c1cc(-c2cnn3cc(-c4ccc(OCCN5CCCCC5)cc4)cnc23)ccn1 [Dorsomorphin] (first compound 0.03 µM, partner dose 2 µM) | 81%
